{"source": "the supplement of paper PMC4466236", "note": "Over roughly 33,000 sequences, “E-score (dimensionless, -0.5 to 0.5)” has its median near -0.058; the highest 2% begin near 0.35. This is one part of the list.", "data": [{"tested_on": "MvaT", "assay": "PBM 8-mer E-score (mean of HK and ME arrays) (E-score (dimensionless, -0.5 to 0.5)); higher = stronger relative binding preference; most listed sequences are background and not binding sites", "in_short": "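Full-length P. aeruginosa MvaT carrying an N-terminal glutathione S-transferase tag was tested by protein binding microarray following a previously described protocol. Two universal double-stranded 60-mer arrays, ME and HK, were used, each with a constant 25-mer primer region and a variable 35-mer region covering all 8-mers. The rank-based E-score is the mean of the two arrays, parsed with a custom script. Its range runs from -0.5 to 0.5 for each 8-mer.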", "values": [{"sequence": "CGGTCTAC", "PBM 8-mer E-score": -0.0579}, {"sequence": "AACAATCG", "PBM 8-mer E-score": -0.015}, {"sequence": "CGTTAGTA", "PBM 8-mer E-score": 0.0889}, {"sequence": "GGCTGACC", "PBM 8-mer E-score": -0.252}, {"sequence": "ATAGGCGA", "PBM 8-mer E-score": 0.0166}, {"sequence": "TCGAGCAA", "PBM 8-mer E-score": -0.119}, {"sequence": "AGGACATG", "PBM 8-mer E-score": -0.147}, {"sequence": "CGACGAGC", "PBM 8-mer E-score": -0.169}, {"sequence": "ACTGGGGC", "PBM 8-mer E-score": -0.213}, {"sequence": "CCTTAAGC", "PBM 8-mer E-score": -0.174}, {"sequence": "TCGGAGAA", "PBM 8-mer E-score": -0.118}, {"sequence": "GGCGAATA", "PBM 8-mer E-score": 0.0554}, {"sequence": "GCACTAAA", "PBM 8-mer E-score": 0.113}, {"sequence": "GTTAACGA", "PBM 8-mer E-score": 0.183}, {"sequence": "CAGCTGGA", "PBM 8-mer E-score": -0.115}, {"sequence": "ACTGGACG", "PBM 8-mer E-score": -0.0771}, {"sequence": "ACCAGAGA", "PBM 8-mer E-score": 0.081}, {"sequence": "AGATTGTC", "PBM 8-mer E-score": -0.0364}, {"sequence": "GGAGTCAA", "PBM 8-mer E-score": -0.134}, {"sequence": "AAGGCTCC", "PBM 8-mer E-score": -0.237}, {"sequence": "CCGACCCC", "PBM 8-mer E-score": -0.381}, {"sequence": "CTTGTCTA", "PBM 8-mer E-score": -0.00097}, {"sequence": "AACGAACG", "PBM 8-mer E-score": -0.117}, {"sequence": "AAATACGT", "PBM 8-mer E-score": 0.259}, {"sequence": "CTCTGCGA", "PBM 8-mer E-score": -0.168}, {"sequence": "CTCGTTAC", "PBM 8-mer E-score": 0.056}, {"sequence": "TATGTCGA", "PBM 8-mer E-score": 0.168}, {"sequence": "CTTCTTGA", "PBM 8-mer E-score": 0.0255}, {"sequence": "CTTTACAA", "PBM 8-mer E-score": 0.193}, {"sequence": "CTATCACC", "PBM 8-mer E-score": -0.0182}, {"sequence": "AGATCCCA", "PBM 8-mer E-score": -0.0741}, {"sequence": "AGACGCTC", "PBM 8-mer E-score": -0.141}, {"sequence": "AAAGGTTG", "PBM 8-mer E-score": 0.0116}, {"sequence": "CCTGACGC", "PBM 8-mer E-score": -0.261}, {"sequence": "CAAAAATG", "PBM 8-mer E-score": -0.00842}, {"sequence": "AGGACAGG", "PBM 8-mer E-score": -0.186}, {"sequence": "TAATGTCA", "PBM 8-mer E-score": 0.23}, {"sequence": "GAAGATAC", "PBM 8-mer E-score": 0.0589}, {"sequence": "CCCACCCA", "PBM 8-mer E-score": -0.0699}, {"sequence": "AACTAGGA", "PBM 8-mer E-score": 0.0115}, {"sequence": "CTATTTGA", "PBM 8-mer E-score": 0.229}, {"sequence": "AGAACTTC", "PBM 8-mer E-score": 0.0781}, {"sequence": "AACTATGG", "PBM 8-mer E-score": 0.00286}, {"sequence": "GCTAGGCC", "PBM 8-mer E-score": -0.287}, {"sequence": "AGTATTAT", "PBM 8-mer E-score": 0.42}, {"sequence": "CACCGCGC", "PBM 8-mer E-score": -0.165}, {"sequence": "AAGTTTAG", "PBM 8-mer E-score": 0.288}, {"sequence": "AGGGTTTG", "PBM 8-mer E-score": 0.0328}, {"sequence": "ATTCTGAA", "PBM 8-mer E-score": 0.16}, {"sequence": "CGGTTTGA", "PBM 8-mer E-score": -0.00659}, {"sequence": "ATCACACG", "PBM 8-mer E-score": -0.0544}, {"sequence": "GCGGCCGA", "PBM 8-mer E-score": -0.256}, {"sequence": "CATCGTCC", "PBM 8-mer E-score": -0.116}, {"sequence": "CAGGAGCA", "PBM 8-mer E-score": -0.222}, {"sequence": "AGCGACTG", "PBM 8-mer E-score": -0.115}, {"sequence": "TAAATAGA", "PBM 8-mer E-score": 0.291}, {"sequence": "ACACAGCA", "PBM 8-mer E-score": -0.0223}, {"sequence": "AAGACTGC", "PBM 8-mer E-score": -0.0755}, {"sequence": "AGGCGATC", "PBM 8-mer E-score": -0.221}, {"sequence": "AAGATCCC", "PBM 8-mer E-score": -0.0739}, {"sequence": "ACCGCGAT", "PBM 8-mer E-score": 0.0861}, {"sequence": "GAGTTCAA", "PBM 8-mer E-score": 0.174}, {"sequence": "CCACATGC", "PBM 8-mer E-score": -0.19}, {"sequence": "ATTACACA", "PBM 8-mer E-score": 0.318}, {"sequence": "CGTGGTGC", "PBM 8-mer E-score": -0.224}, {"sequence": "ATTGGTGA", "PBM 8-mer E-score": 0.167}, {"sequence": "GGATGAGA", "PBM 8-mer E-score": -0.174}, {"sequence": "CTGAATCC", "PBM 8-mer E-score": -0.026}, {"sequence": "GGGCGGCA", "PBM 8-mer E-score": -0.164}, {"sequence": "ACTTAGGG", "PBM 8-mer E-score": 0.0151}, {"sequence": "CGGTTTGC", "PBM 8-mer E-score": -0.00207}, {"sequence": "AAAGATTG", "PBM 8-mer E-score": 0.242}, {"sequence": "GTCATTTA", "PBM 8-mer E-score": 0.24}, {"sequence": "CATGGTGC", "PBM 8-mer E-score": -0.326}, {"sequence": "AGGAATCG", "PBM 8-mer E-score": -0.147}, {"sequence": "CCGAGCGG", "PBM 8-mer E-score": -0.278}, {"sequence": "AGCCTCAG", "PBM 8-mer E-score": -0.144}, {"sequence": "GTGGCACA", "PBM 8-mer E-score": -0.148}, {"sequence": "AGGTTGGC", "PBM 8-mer E-score": -0.171}, {"sequence": "CAGGAGCC", "PBM 8-mer E-score": -0.27}, {"sequence": "AGTGCGCA", "PBM 8-mer E-score": 0.13}, {"sequence": "ACTACGAT", "PBM 8-mer E-score": 0.122}, {"sequence": "ATGCGCCG", "PBM 8-mer E-score": -0.055}, {"sequence": "CCGATGAA", "PBM 8-mer E-score": -0.12}, {"sequence": "TAGCCCGA", "PBM 8-mer E-score": -0.104}, {"sequence": "CTGGTTCC", "PBM 8-mer E-score": -0.183}, {"sequence": "GCCGGCGC", "PBM 8-mer E-score": -0.243}, {"sequence": "CTTTTTTC", "PBM 8-mer E-score": 0.131}, {"sequence": "AGTGTACC", "PBM 8-mer E-score": -0.0462}, {"sequence": "CCCGAAGC", "PBM 8-mer E-score": -0.286}, {"sequence": "TACTGCCA", "PBM 8-mer E-score": -0.0285}, {"sequence": "CACTTATG", "PBM 8-mer E-score": 0.12}, {"sequence": "GACCCAGA", "PBM 8-mer E-score": -0.21}, {"sequence": "AGAGTCCT", "PBM 8-mer E-score": -0.236}]}]}
